From patent US11090319B2, “Therapeutic uses of pharmaceutical compositions comprising cyclic boronic acid ester derivatives” (Melinta Subsidiary Corp., priority 2010, dated 2021)
At least one read-out could not be matched to a standard name with certainty.

Key:
KP1004 KPC-2 = experiment: Aztreonam dose titration potentiation assay (MPC@4), class A KPCs; assay type: cell-based, Klebsiella pneumoniae; details: aztreonam at 4 μg/mL
KP1008 KPC-2 = experiment: as above; assay type: cell-based, Klebsiella pneumoniae; details: aztreonam at 4 μg/mL

| SMILES | AZT MPC4 KPC-2 KP1004 (KP1004 KPC-2) | AZT MPC4 KPC-2 KP1008 (KP1008 KPC-2) |
| --- | --- | --- |
| N[C@@H](CCC(=O)N[C@H]1CC[C@@H](CC(=O)O)OB1O)C(=O)O [Compound 35, (S)-2-amino-5-((3R,6S)-6-(carboxymethyl)-2-hydroxy-1,2-oxaborinan-3-ylamino)-5-oxopentanoic acid] | Y (MPC@4 of 5 μg/mL to 20 μg/mL) | X (MPC@4 of less than 5 μg/mL) |
| O=C(O)C[C@@H]1CC[C@H](NC(=O)Cc2cccnc2)B(O)O1 [Compound 43, 2-((3R,6S)-2-hydroxy-3-(2-(pyridin-3-yl)acetamido)-1,2-oxaborinan-6-yl)acetic acid] | X (MPC@4 of less than 5 μg/mL) | X (MPC@4 of less than 5 μg/mL) |
| N[C@H]1CC[C@@H](CC(=O)N[C@H]2CC[C@@H](CC(=O)O)OB2O)CC1 [Compound 50, 2-((3R,6S)-3-(2-(4-aminocyclohexyl)acetamido)-2-hydroxy-1,2-oxaborinan-6-yl)acetic acid] | X (MPC@4 of less than 5 μg/mL) | X (MPC@4 of less than 5 μg/mL) |
| C[C@]1(Cn2ccnn2)[C@H](C(=O)N[C@H]2CC[C@@H](CC(=O)O)OB2O)N2C(=O)C[C@H]2S1(=O)=O [Compound 59, 2-[(3R,6S)-2-hydroxy-3-[(2S,3 S,5R)-3-methyl-4,4,7-trioxo-3-(1H-1,2,3-triazol-1-ylmethyl)-4λ^6-thia-1-azabicyclo[3.2.0]heptane-2-amido]-1,2-oxaborinan-6-yl]acetic acid] | Z (MPC@4 of greater than 20 μg/mL) | Z (MPC@4 of greater than 20 μg/mL) |
| O=C(O)C[C@@H]1CC[C@H](NC(=O)[C@H]2Cc3ccccc3CN2)B(O)O1 [Compound 46, 2-((3R,6S)-2-hydroxy-3-((R)-1,2,3,4-tetrahydroisoquinoline-3-carboxamido)-1,2-oxaborinan-6-yl)acetic acid] | X (MPC@4 of less than 5 μg/mL) | X (MPC@4 of less than 5 μg/mL) |
| CO/N=C(\C(=O)N[C@H]1CC[C@@H](CC(=O)O)OB1O)c1csc(N)n1 [Compound 40, 2-((3R,6S)-3-((Z)-2-(2-aminothiazol-4-yl)-2-(methoxyimino)acetamido)-2-hydroxy-1,2-oxaborinan-6-yl)acetic acid] | Z (MPC@4 of greater than 20 μg/mL) | Y (MPC@4 of 5 μg/mL to 20 μg/mL) |
| Nc1cc(CC(=O)N[C@H]2CC[C@@H](CC(=O)O)OB2O)ccn1 [Compound 61, 2-((3R,6S)-3-(2-(2-aminopyridin-4-yl)acetamido)-2-hydroxy-1,2-oxaborinan-6-yl)acetic acid] | X (MPC@4 of less than 5 μg/mL) | X (MPC@4 of less than 5 μg/mL) |
| O=C(O)C[C@@H]1CC[C@H](NC(=O)Cc2ccccn2)B(O)O1 [Compound 57, 2-((3R,6S)-2-hydroxy-3-(2-(pyridin-2-yl)acetamido)-1,2-oxaborinan-6-yl)acetic acid] | X (MPC@4 of less than 5 μg/mL) | X (MPC@4 of less than 5 μg/mL) |
| NCCC(=O)N[C@H]1CC[C@@H](CC(=O)O)OB1O [Compound 34, 2-((3R,6S)-3-(3-aminopropanamido)-2-hydroxy-1,2-oxaborinan-6-yl)acetic acid] | X (MPC@4 of less than 5 μg/mL) | X (MPC@4 of less than 5 μg/mL) |
| N=C(N)NCCC[C@@H](N)C(=O)N[C@H]1CC[C@@H](CC(=O)O)OB1O [Compound 47, 2-((3R,6S)-3-((R)-2-amino-5-guanidinopentanamido)-2-hydroxy-1,2-oxaborinan-6-yl)acetic acid] | Z (MPC@4 of greater than 20 μg/mL) | Y (MPC@4 of 5 μg/mL to 20 μg/mL) |
| O=C(O)C[C@@H]1CC[C@H](NC(=O)CCc2nnc(-c3ccccc3)o2)B(O)O1 [Compound 60, 2-((3R,6S)-2-hydroxy-3-(3-(5-phenyl-1,3,4-oxadiazol-2-yl)propanamido)-1,2-oxaborinan-6-yl)acetic acid] | Z (MPC@4 of greater than 20 μg/mL) | Y (MPC@4 of 5 μg/mL to 20 μg/mL) |
| N[C@H](C(=O)N[C@H]1CC[C@@H](CC(=O)O)OB1O)c1ccccc1 [Compound 33, 2-((3R,6S)-3-((S)-2-amino-2-phenylacetamido)-2-hydroxy-1,2-oxaborinan-6-yl)acetic acid] | X (MPC@4 of less than 5 μg/mL) | X (MPC@4 of less than 5 μg/mL) |
| O=C(O)C[C@@H]1CC[C@H](NC(=O)c2ccc(Cn3cnnn3)cc2)B(O)O1 [Compound 56, 2-((3R,6S)-3-(4-((1H-tetrazol-1-yl)methyl)benzamido)-2-hydroxy-1,2-oxaborinan-6-yl)acetic acid] | Y (MPC@4 of 5 μg/mL to 20 μg/mL) | X (MPC@4 of less than 5 μg/mL) |
| Nc1nc(/C(=N/OCc2cc(=O)c(O)cn2O)C(=O)N[C@H]2CC[C@@H](CC(=O)O)OB2O)cs1 [Compound 62, 2-((3R)-3-((Z)-2-(2-aminothiazol-4-yl)-2-((1,5-dihydroxy-4-oxo-1,4-dihydropyridin-2-yl)methoxyimino)acetamido)-2-hydroxy-1,2-oxaborinan-6-yl)acetic acid] | Y (MPC@4 of 5 μg/mL to 20 μg/mL) | X (MPC@4 of less than 5 μg/mL) |
| Nc1nc(CC(=O)N[C@H]2CC[C@@H](CC(=O)O)OB2O)cs1 [Compound 39, 2-((3R,6S)-3-(2-(2-aminothiazol-4-yl)acetamido)-2-hydroxy-1,2-oxaborinan-6-yl)acetic acid] | Y (MPC@4 of 5 μg/mL to 20 μg/mL) | X (MPC@4 of less than 5 μg/mL) |
| CC(=O)N[C@H]1CCC(CC(=O)O)OB1O (stereo partly drawn) [Compound 3, 2-((3R)-3-acetamido-2-hydroxy-1,2-oxaborinan-6-yl)acetic acid] | X (MPC@4 of less than 5 μg/mL) | X (MPC@4 of less than 5 μg/mL) |
| O=C(O)C[C@@H]1CC[C@H](NC(=O)Cn2ccnc2-c2ccccc2)B(O)O1 [Compound 54, 2-((3R,6S)-2-hydroxy-3-(2-(2-phenyl-1H-imidazol-1-yl)acetamido)-1,2-oxaborinan-6-yl)acetic acid] | Z (MPC@4 of greater than 20 μg/mL) | X (MPC@4 of less than 5 μg/mL) |
| CSCCC(N)C(=O)N[C@H]1CC[C@@H](CC(=O)O)OB1O (stereo partly drawn) [Compound 41, 2-((3R,6S)-3-(2-amino-4-(methylthio)butanamido)-2-hydroxy-1,2-oxaborinan-6-yl)acetic acid] | Y (MPC@4 of 5 μg/mL to 20 μg/mL) | X (MPC@4 of less than 5 μg/mL) |
| CCOC(=O)C[C@@H]1CC[C@H](NC(=O)Cc2cccs2)B(O)O1 [Compound 65, ethyl 2-((3R,6S)-2-hydroxy-3-(2-(thiophen-2-yl)acetamido)-1,2-oxaborinan-6-yl)acetate] | Z (MPC@4 of greater than 20 μg/mL) | Z (MPC@4 of greater than 20 μg/mL) |
| O=C(O)C[C@@H]1CC[C@H](NC(=O)CCc2ccccc2)B(O)O1 [Compound 38, 2-((3R,6S)-2-hydroxy-3-(3-phenylpropanamido)-1,2-oxaborinan-6-yl)acetic acid] | Z (MPC@4 of greater than 20 μg/mL) | X (MPC@4 of less than 5 μg/mL) |
